Assay results published in paper PMC4336329 (PLoS ONE, 2015).
In all, about 310,000 compounds went through this assay and about 14,000 (4.5%) showed an effect of 50% or more. The effect is printed as a negative number. This is one part of the list.

These compounds were tested against human ether-à-go-go-related gene (hERG) potassium channel (human, UniProt Q12809) (assay: primary screen, population patch clamp on CHO cells stably expressing hERG).
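Note: peak tail current of the secondary pulse compared with the same well before compound.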

Chain of human ether-à-go-go-related gene (hERG) potassium channel (Q12809 whole entry, looked up): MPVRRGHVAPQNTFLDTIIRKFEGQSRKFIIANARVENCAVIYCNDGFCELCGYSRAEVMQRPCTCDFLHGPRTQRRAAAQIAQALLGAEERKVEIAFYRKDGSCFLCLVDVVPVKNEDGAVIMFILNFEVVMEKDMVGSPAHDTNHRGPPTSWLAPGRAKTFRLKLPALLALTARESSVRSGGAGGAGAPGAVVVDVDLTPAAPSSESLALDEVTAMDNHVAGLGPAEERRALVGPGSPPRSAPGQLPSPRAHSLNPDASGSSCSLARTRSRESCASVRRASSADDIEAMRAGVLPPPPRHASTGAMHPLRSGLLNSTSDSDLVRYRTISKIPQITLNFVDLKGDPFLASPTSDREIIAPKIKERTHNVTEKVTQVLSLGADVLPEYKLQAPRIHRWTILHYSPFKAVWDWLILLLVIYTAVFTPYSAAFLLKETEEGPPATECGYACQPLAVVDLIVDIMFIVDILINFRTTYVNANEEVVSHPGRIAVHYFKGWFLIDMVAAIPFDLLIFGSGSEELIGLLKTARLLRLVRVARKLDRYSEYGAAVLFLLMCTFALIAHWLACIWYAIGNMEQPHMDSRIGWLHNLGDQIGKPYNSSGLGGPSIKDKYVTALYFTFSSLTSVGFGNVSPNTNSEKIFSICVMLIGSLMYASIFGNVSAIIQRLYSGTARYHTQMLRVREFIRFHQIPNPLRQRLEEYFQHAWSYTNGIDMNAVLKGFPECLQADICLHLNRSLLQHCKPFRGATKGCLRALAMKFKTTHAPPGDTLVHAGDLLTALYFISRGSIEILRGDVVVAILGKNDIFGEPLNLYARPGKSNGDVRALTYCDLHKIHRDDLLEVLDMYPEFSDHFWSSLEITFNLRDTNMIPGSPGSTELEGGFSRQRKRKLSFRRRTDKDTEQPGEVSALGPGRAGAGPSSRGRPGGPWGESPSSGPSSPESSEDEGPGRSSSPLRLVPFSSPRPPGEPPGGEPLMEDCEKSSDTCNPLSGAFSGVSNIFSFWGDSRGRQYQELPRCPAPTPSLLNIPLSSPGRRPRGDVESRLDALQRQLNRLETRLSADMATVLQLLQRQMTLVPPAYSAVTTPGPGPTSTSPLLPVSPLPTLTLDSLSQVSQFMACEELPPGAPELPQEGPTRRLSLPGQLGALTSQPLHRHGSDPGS

Compound	hERG current change (%, negative = inhibition) at 10uM
CCN(CC)c1ccc(C2NCC(c3ccc([N+](=O)[O-])cc3)O2)cc1 (stereo not shown)	-1.1%
O=C(O)c1cccc(CSc2nnc(-c3ccc(Cl)cc3)o2)c1	12.5%
COc1ccc(/C=C2/SC(=S)N(NS(=O)(=O)c3ccccc3)C2=O)cc1	-12%
O=C(/C=C/c1ccccc1)OCCN=C1NS(=O)(=O)c2ccccc21	2.88%
CCn1c(C(O)c2ccc(C)cc2)nc2ccccc21 (stereo not shown)	-8.71%
CC(C)n1nnc2ccccc2c1=O	10%
O=C(O)C1CC(=O)N(C2CCCCC2)C1c1ccccc1 (stereo not shown)	11.6%
O=C(COC(=O)c1ccc(Cl)nc1)NCc1ccc2c(c1)OCO2	8.06%
Cc1cc(C)cc(SCc2noc(C(=O)NCCN(C)C)c2C(=O)NCCN(C)C)c1	6.93%
Cc1cccc(-n2cc(-c3ccccc3)c3c(=O)[nH]cnc32)c1	-0.42%
O=C(CCC(=O)c1cccs1)NCc1cccc(Cl)c1	-13.1%
Cc1cc(/C=N/n2cnnc2)c(C)n1-c1ccc2ncccc2c1	-15.7%
O=C(c1cccs1)N1CCC(c2nc(-c3ccc(S(=O)(=O)N4CCOCC4)cc3)no2)CC1	-68.8%
CO/N=C/NC(=O)NOCc1ccc(Cl)cc1Cl	-11.5%
CSCCC(NC(=O)COc1ccccc1)C(=O)O (stereo not shown)	15.2%
COc1ccc(/C=C2\SC(=S)N(CCCC(=O)NC3CCCC3)C2=O)cc1OC	-12.2%
Cc1cccc(OCCCSc2nc3ccccc3[nH]2)c1	-15.3%
CCOC(=O)N1CCN(C(=O)COc2ccc(S(=O)(=O)NC3CCCCC3)cc2C)CC1	-16.9%
Cc1ccc(NC(=O)COC(=O)CCC2CCCC2)c(Br)c1	38.5%
Cc1cccc(N2CCN(Cc3cnc(Cl)s3)CC2C)c1 (stereo not shown)	-6.21%
O=C(N/N=C/c1ccc(OC(=O)c2cccs2)cc1)c1ccccn1	7.2%
CC(NC(=O)COC(=O)CCNC(=O)c1ccco1)C12CC3CC(CC(C3)C1)C2 (stereo not shown)	0.656%

Compound	hERG current change (%, negative = inhibition) at 10uM
Cc1ccc(NCc2nnc(SCC(=O)c3ccccc3)o2)c(C)c1	9.24%
CC(=NCCc1c(C)[nH]c2ccc(OC(F)(F)F)cc12)C1=C(O)CC(c2ccccc2)CC1=O (stereo not shown)	8.92%
COc1ccc(C(=O)c2ccccc2)c(OCC(=O)NC2CC2)c1	26.4%
COc1ccc(N2C(=O)NC(=O)/C(=C\c3ccc([N+](=O)[O-])s3)C2=O)cc1	13.3%
Cc1ccccc1NC(=O)CSCc1cc(=O)n2ccsc2n1	11.6%
C=CCNC(=S)Nc1ccc(C)cc1[N+](=O)[O-]	-7.08%
COc1cccc(C(=O)N(Cc2ccccc2)Cc2cc3cc4c(cc3[nH]c2=O)OCCO4)c1	-25.3%
COC(=O)[C@@H](NC(=O)NCCC1=CCCCC1)C(C)C	-3.29%
CC(C(=O)NC1(C#N)CCCCC1)N(C)CC(=O)Nc1ccc(Cl)c(Cl)c1 (stereo not shown)	-1.49%
COc1cc(/C=N\NC(=O)CC(=O)NCCc2ccccc2)ccc1O	15.2%
COC(=O)C1=C(c2ccc3ccccc3c2)C[C@@H]2CC[C@H]1N2C(=O)NC1CC1	11.6%
S=c1[nH]cnc2scc(-c3ccc(Cl)cc3)c12	18.6%
Cc1ccc(NC(=O)c2ccc(OC(=O)COc3ccc(Cl)c(C)c3)cc2)cc1	22.8%
CCOC(=O)C1(Cc2cccc(OC)c2)CCCN(Cc2cc(OC)c(O)c(OC)c2)C1 (stereo not shown)	-33.7%
CCc1cccc(C)c1NC(=O)CNCc1ccccc1.O=C(O)C(=O)O	8.8%
Cn1nnnc1SCC(=O)Nc1ccccc1N1CCCCC1	-15.2%
CCOC(=O)c1c(CS(=O)(=O)c2ccccc2)n(C)c2cc(Br)c(O)cc12	5.4%
C=CCOC(=O)c1[nH]c2c(c1C)C(=O)CC(c1cc(OC)c(OC)c(OC)c1)C2 (stereo not shown)	-46.8%
COc1cc(/C=N/NC(=O)c2cc(-c3cccc(Br)c3)nc3ccccc23)cc(OC)c1O	10.8%
COc1ccc(NC(=O)c2cccs2)cc1NC(=O)c1ccco1	-10.8%
O=C(NC(Cc1ccccc1)c1ccc2c(c1)OCCCO2)c1ccccc1F (stereo not shown)	-11.9%
Cc1cc(F)ccc1NC(=O)C1CCN(C(=O)Nc2ccccc2)CC1	7.17%

Compound	hERG current change (%, negative = inhibition) at 10uM
CCOc1ccc(/C=N/NC(=O)c2c(C)n(C)c3ccc(OC)cc23)cc1	-5.78%
Clc1cc2nc(-c3cccnc3Cl)[nH]c2cc1Cl	24%
COC(=O)c1ccc(CSc2ncnc3c2oc2ccccc23)o1	0.358%
COc1cccc2c(=O)cc(C)n(CC(=O)Nc3cccc(C)c3)c12	-59.4%
COC(=O)C1NN=C(C(=O)c2ccc(Br)cc2)C1c1cccc(Br)c1 (stereo not shown)	2.42%
Cc1ccc(Oc2ccc(NC(=O)c3ccco3)cc2)cc1	-17.6%
O=Cc1c(-c2ccccc2)nc2ccccn12	-1.34%
COc1c(/C=N/NC(=O)[C@H]2C[C@@H]2c2ccccc2)c(CCN(C)C(C)=O)cc2c1OCO2	-8.15%
COc1ccccc1/C=N/NC(=O)CC(=O)Nc1ccc(Cl)c(Cl)c1	7.42%
CCC(=O)N1CCc2cc(S(=O)(=O)N3CCN(C(=O)c4ccco4)CC3)ccc21	-21.8%
CCOC(=O)c1ccc(N=c2sc(C(=O)OC)cc(=O)n2-c2ccc(C(=O)OCC)cc2)cc1	7.22%
O=c1[nH]c2cc(Cl)ccc2c(O)c1-c1cccc(Oc2ccccc2)c1	3.45%
COc1ccc(NC(=O)CSc2nc3c(c(=O)n(C)c(=O)n3C)n2C)c(OC)c1	5.57%
CC(C)(C)c1ccc(OC(=O)Cn2c(C(F)(F)F)nc3ccccc32)cc1	0.924%
O=S(=O)([O-])CCC[n+]1c(SCCCS(=O)(=O)O)sc2ccc(Cl)cc21	4.11%
Cc1sc2ncnc(N3CCN(S(=O)(=O)c4ccc(Br)cc4)CC3)c2c1C	-47.5%
O=C(c1cccc(F)c1F)N1CCCC1	24.7%
O=S(=O)(Nc1ccc(-c2ccc(N3CCOCC3)nn2)cc1)c1cc(Cl)ccc1Cl	-35.3%
CCOc1cccc(/C(O)=C2/C(=O)C(=O)N(Cc3cccnc3)C2c2ccco2)c1 (stereo not shown)	0.332%
CCc1ccc(N2CC(C(=O)OCc3nc4ccsc4c(=O)[nH]3)CC2=O)cc1 (stereo not shown)	-26%
CC1CCN(CCOc2ccccc2-c2ccccc2)CC1.O=C(O)C(=O)O	-58.6%
O=C1OC(Cc2ccccn2)C(O)=C1C1=NCCCN1 (stereo not shown)	-5.55%

Compound	hERG current change (%, negative = inhibition) at 10uM
CCN1C(=O)/C(=C/c2nc3ccccc3c(=O)[nH]2)c2ccccc21	1.43%
COC(=O)c1ccccc1NC(=O)c1noc2c1CCC2	5.22%
CCOC(=O)c1ccc(S(=O)(=O)N2CCN(C(=O)C3CSC4(C)CCC(=O)N34)CC2)cc1 (stereo not shown)	-23.6%
NC(=S)c1cc2cc(Br)ccc2oc1=O	9.47%
Cc1ccc(C(=O)NCCS(=O)(=O)N2CCN(c3ccccc3F)CC2)cc1[N+](=O)[O-]	5.07%
COCCNc1nnc(SCC(=O)NNC(=O)c2ccccc2)s1	18.6%
Cc1ccc(-n2ncc3c(SCC(=O)NNC(=O)c4ccco4)ncnc32)cc1	23.5%
CCOC(=O)c1ccccc1NC(=O)Cc1ccccc1OC	-18.5%
CN(c1ccccc1)S(=O)(=O)c1cccc(NC(=O)C2CC(=O)N(Cc3ccccc3)C2)c1 (stereo not shown)	-26.2%
CN1CCN(S(=O)(=O)c2ccc(NC(=O)c3csc4ccccc34)cc2)CC1	-17.5%
Cc1ccc(S(=O)(=O)N2CCCC2CO)cc1 (stereo not shown)	-1.55%
O=C(NCc1nnc(SCC(=O)N2CCc3ccccc32)o1)c1cccs1	-12.6%
CC1CCCN(C(=O)c2cc(-c3ccco3)nc3ccccc23)C1 (stereo not shown)	-15.5%
COc1cccc(CNc2ccc(C(=O)O)cc2)c1OCc1ccccc1	-13.6%
C/C(CC(=O)NCc1ccc(F)cc1)=N\NC(N)=S	18.9%
OC(COc1ccc2c(c1)OCO2)CN1CCCCC1 (stereo not shown)	18.6%
O=S(=O)(c1ccc2c(c1)C(O)c1ccccc1CC2)C(F)(F)F (stereo not shown)	-11%
COc1ccc(C(=O)Nc2cccc3ccccc23)cc1	1.02%
O=C(CN(Cc1cccs1)C(=O)CNS(=O)(=O)c1ccccc1)NC1CCCC1	-8.15%
O=c1[nH][nH]cc1C=Nc1ccccc1O	18.6%
Cc1cc(NC(=O)COc2cccc([N+](=O)[O-])c2)no1	14.1%
COc1ccc(Nc2ncc(C(=O)N3CCN(c4ccc(F)cc4)CC3)c3ccccc23)cc1	-6.15%
